The values that follow come from PubChem BioAssay AID1159614 (National Center for Advancing Translational Sciences (NCATS), 2016).

Molecules are shown by their SMILES. The campaign covered roughly 45,000 compounds. About 65 (0.1%) were called active. The call rests on the fitted dose curve; in most records, active means well fitted activation curve with a large enough effect; inconclusive means small, poorly fitted or top-dose-only effect; inactive means no such curve, though single readings can be large or run the other way. The list shows a part of the results.

The test addresses Galactocerebrosidase (Homo sapiens) (UniProt P54803). The test is described as follows: A Novel Cell-Based Assay to Identify Small Molecules for B -Galactocerebrosidase. Further: 0% is about no effect; nearly all actives have a fitted effect of over 65% in size. As to conditions: 145M-Twi-hGALC-G270D cells (Twitcher mouse brain line with human GALC G270D), HMU-beta-Gal fluorescence, 48 h; series mostly up to 57.5 µM; activation: at the top concentration. In a few lines: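 Fluorescence readout: HMU-β-gal cleavage by mutant GALC (0.1 mM final, citrate/phosphate pH 5.2 with 1 mg/mL taurocholate), stopped with carbonate/bicarbonate plus Triton X-100. Cells: murine Twitcher 145M-Twi expressing human G270D GALC; qHTS for activators.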
UniProt P54803, sequence (P54803 whole entry, looked up): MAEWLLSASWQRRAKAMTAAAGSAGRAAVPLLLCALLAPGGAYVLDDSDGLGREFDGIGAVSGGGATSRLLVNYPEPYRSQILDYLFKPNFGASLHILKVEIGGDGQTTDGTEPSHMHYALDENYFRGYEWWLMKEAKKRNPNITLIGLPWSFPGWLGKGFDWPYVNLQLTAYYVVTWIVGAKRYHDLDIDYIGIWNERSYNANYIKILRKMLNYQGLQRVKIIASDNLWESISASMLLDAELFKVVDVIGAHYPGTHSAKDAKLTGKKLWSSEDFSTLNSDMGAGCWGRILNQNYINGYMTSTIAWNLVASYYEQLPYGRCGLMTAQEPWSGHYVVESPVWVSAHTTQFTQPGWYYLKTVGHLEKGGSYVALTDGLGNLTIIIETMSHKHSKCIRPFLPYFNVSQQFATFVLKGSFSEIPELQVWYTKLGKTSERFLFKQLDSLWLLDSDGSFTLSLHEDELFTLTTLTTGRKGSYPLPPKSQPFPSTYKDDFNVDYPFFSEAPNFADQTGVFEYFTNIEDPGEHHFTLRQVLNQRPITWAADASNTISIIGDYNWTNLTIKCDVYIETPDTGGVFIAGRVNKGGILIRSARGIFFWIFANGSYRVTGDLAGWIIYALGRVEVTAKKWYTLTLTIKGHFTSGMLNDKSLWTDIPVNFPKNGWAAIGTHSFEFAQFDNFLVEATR
In the case of `COc1cc(NC(=O)Cn2nc(C(F)(F)F)c3c2CCCC3)c(OC)cc1Cl`, the “activation” value is inactive: -25.5%. For `Cc1nn2c(=O)cc(COC(=O)c3ccc(NC(=O)C4CCCCC4)cc3)nc2s1`, the “activation” value is inactive: -18.5%. `Cc1ccc(NC(=O)Cn2c(=O)n(CCCCC(=O)NCCc3ccccc3)c(=O)c3ccccc32)c(C)c1`: the “activation” value is inactive: -16.9%.

As to `O=C(Nc1ccc(F)cc1F)c1cc(-c2ccccc2O)no1`, the “activation” value was inactive: -5.86%. With `CCCCOC(=O)c1ccc(NC(=O)c2cc3c(=O)n4cccc(C)c4nc3n2C)cc1`, the “activation” value was inactive: -7.5%.

As to `CCOc1ccc(CNC(=O)c2ccc(-c3nc(CS(=O)(=O)c4ccccc4)c(C)o3)cc2)cc1`, the “activation” value is inactive: -12.6%.

For `Cc1ccc(NC(=O)C(NS(=O)(=O)c2ccc3c(c2)CCC(=O)N3)c2ccccc2)cc1C` (stereo unspecified), the “activation” value was inactive: -2.27%. Regarding `O=C(CSc1nc(=O)[nH]c2c1CCCC2)Nc1ccccc1C(F)(F)F`, the “activation” value is inactive: -13.4%. `CCOC(=O)C1CCN(CCC(=O)Nc2ccc(Br)c(C)c2)CC1`: the “activation” value is inactive: -15.6%.

Consider `COc1ccc(NC(=O)CN2CCCN(Cc3ccc(Cl)cc3)S2(=O)=O)cc1Cl`, for which the “activation” value was inactive: -3.47%. For the compound `COc1ccc(CNC(=O)c2cnc3sc(N4CCCCCC4)nn3c2=O)cc1`, the “activation” value was inactive: -6.93%. On to `CCOC(=O)c1cnc2ccccc2c1NCCc1ccc(OC)c(OC)c1`, for which the “activation” value was inactive: -6.94%.

For the compound `CCOC(=O)c1ccc(NC(=O)Cn2cc(C(=O)c3ccc(CC)cc3)c(=O)c3ccc(C)nc32)cc1`, the “activation” value is inactive: -0.323%. Consider `CCN1c2ccccc2-c2nc(SCC(=O)NCc3ccc(C)cc3)ncc2S1(=O)=O`, for which the “activation” value is inactive: -10.1%. On to `CCOc1ccc(NC(=O)CN(c2ccc(CC)cc2)S(=O)(=O)c2c(C)noc2C)cc1`, for which the “activation” value is inactive: -7.89%. `CCOc1ccc(-c2nc(Cn3c(=O)cc(-c4ccccc4)c4c(C)nn(C)c43)c(C)o2)cc1`: the “activation” value was inactive: -4.56%. For the compound `Cc1ccc(CNC(=O)C2CCN(S(=O)(=O)c3c(C)noc3/C=C/c3cccs3)CC2)cc1`, the “activation” value is inactive: -1.55%. For `Cc1sc2ncn(CC(=O)N3CCN(c4ccc(F)cc4)CC3)c(=O)c2c1S(=O)(=O)N1CCC(C)CC1`, the “activation” value was inactive: -5.1%. On to `COC(=O)C1=C(c2ccccc2)c2ccccc2S(=O)(=O)N1CC(=O)Nc1ccc(F)c(F)c1`, for which the “activation” value was inactive: -14.6%.

In the case of `Cc1ccc(CNC(=O)Cn2c(=O)cc(C(F)(F)F)c3c(C)nn(C)c32)cc1`, the “activation” value was inactive: -10.2%.

For the compound `Oc1c(C(c2ccc(Cl)cc2Cl)N2CCN(c3ccccc3)CC2)sc2nc(-c3ccco3)nn12` (stereo unspecified), the “activation” value was inactive: -13.7%. For `O=C(NCc1cccc(Cl)c1)c1ccc(NC(=O)N2CC3CCCN3c3ccccc32)cc1` (stereo unspecified) the value was inactive: -15.9%; for `CC(C)Oc1ccc(CNC(=O)c2ccc(CN3CC(=O)N4CCCCC4C3=O)cc2)cc1` (stereo unspecified), inactive: -12.9%; for `CSc1ncc(C(=O)NCc2cccc(F)c2)c(-c2ccccc2)n1`, inactive: 2.25%.

For the compound `O=C(CCS(=O)(=O)c1cc2c(cc1Cl)NC(=O)CO2)NCc1ccccc1Cl`, the “activation” value was inactive: -16.1%. For `CCCc1nc(SC)ncc1C(=O)N1CCN(c2ccc(Cl)cc2)CC1` the value was inactive: 1.36%; for `COc1ccc(CN(Cc2ccco2)c2cnc(S(C)(=O)=O)nc2C(=O)Nc2ccc(C)c(Cl)c2)cc1`, inactive: -16%. As for `O=C(Nc1ccc2nc(SCC(=O)N3CCc4ccccc43)sc2c1)c1ccc(F)cc1`, the “activation” value was inactive: -8.05%. With `O=c1c2oc3ccccc3c2n(Cc2ccccc2Cl)c(=O)n1Cc1ccco1`, the “activation” value is inactive: -7.6%. `O=C(NCCc1ccccc1)C1CCC(CNS(=O)(=O)c2ccccc2)CC1` (stereo unspecified): the “activation” value was inactive: -10.9%.

As to `CC(C)Oc1ccc(C(=O)N2CCN(CCc3ccccn3)CC2)cc1`, the “activation” value is inactive: -6.45%. For `CCCn1c(SCc2nc(-c3ccc(OC)c(OC)c3)no2)nnc1-c1ccccc1` the value was inactive: -17.1%; for `Cc1ccc(NC(=O)c2cnn3c(C(F)F)cc(-c4ccccc4)nc23)cc1F`, inactive: -10%. On to `CC1CCc2nn(CC(=O)Nc3ccccc3Cl)cc2C1` (stereo unspecified), for which the “activation” value was inactive: -10.2%. `CCOc1ccc(NC(=O)NCCc2c(C)nn(C)c2C)cc1`: the “activation” value is inactive: -12.8%.

For `Cc1cccc(N2CCN(C(=O)CN3CCSc4ccccc43)CC2C)c1` (stereo unspecified), the “activation” value is inactive: -31.2%. As to `CCc1ccc(-c2nc3c(c(SCc4ccccc4F)n2)Cc2c(CO)cnc(C)c2O3)cc1`, the “activation” value is inactive: -11.9%. For the compound `COc1ccc(NC(=O)C(=O)NCC(c2cccnc2)N2CCc3ccccc32)cc1OC` (stereo unspecified), the “activation” value is inactive: -26.1%.

Consider `COc1cccc(S(=O)(=O)N2CCN(Cc3ccc4c(c3)OCO4)CC2)c1`, for which the “activation” value was inactive: -12.7%. Consider `Cc1ccc(NC(=O)C(C)Sc2nc(=O)cc(N)n2-c2cccc(C)c2)cc1` (stereo unspecified), for which the “activation” value is inactive: -6.87%. As to `CN(Cc1ccccc1)S(=O)(=O)c1ccc(-c2cnc(C3CC3)o2)cc1`, the “activation” value was inactive: -12.1%. As for `Cc1c(C2=CCN(S(=O)(=O)c3cccc(Cl)c3)CC2)c2ccccc2n1CC(=O)N1CCCC1`, the “activation” value was inactive: -9.24%. For the compound `CCOc1ccccc1NC(=O)CN1C(=O)CC(c2ccc(OC)c(OC)c2)Sc2ccccc21` (stereo unspecified), the “activation” value is inactive: -5.39%. For `Cc1ccc(-c2nnc(C3CCN(S(=O)(=O)c4ccc(C)c(C)c4)CC3)o2)cc1`, the “activation” value was inactive: -22.7%. Next, `Cn1c(-n2cccc2)c(-c2c(-c3ccccc3)[nH]c3c2c(=O)n(C)c(=O)n3C)c(=O)n(C)c1=O`: inactive: -13.5%; `CCCCOC(=O)c1ccc(NC(=O)CSc2nc3c(c(=O)[nH]2)CCCC3)cc1`: inactive: -9.24%. Turning to `Cc1ccc(N2C(=O)CCSC23C(=O)N(Cc2ccccc2)c2ccccc23)cc1F` (stereo unspecified), the “activation” value was inactive: 1.04%.

`Cc1cc(C)cc(NS(=O)(=O)c2ccc3[nH]cc(C(=O)N(C)Cc4ccccc4)c(=O)c3c2)c1`: the “activation” value was inactive: -11.6%. For `O=C(NCc1ccc(F)cc1)c1cc2c(=O)n3ccccc3nc2s1` the value was inactive: -12.6%; for `COc1ccc(OC)c(/C=C(/C#N)c2nc(-c3ccc(-c4ccccc4)cc3)cs2)c1`, inactive: -22%. For the compound `O=C(NCc1ccccc1)c1nn(-c2ccccc2)nc1CO`, the “activation” value was inactive: -6.04%. As to `Cc1ccc(CNC(=O)Cn2c(=O)n(-c3ccc(Cl)cc3)c(=O)c3c(C)c(C)sc32)cc1`, the “activation” value was inactive: -9.94%. For `Cc1ccccc1CN1C(=O)c2ccccc2Sc2ccc(C(=O)NC(C)c3ccccc3)cc21` (stereo unspecified) the value was inactive: -14.1%; for `CCN1CCOC(=O)C1CC(=O)Nc1cc(C)cc(C)c1` (stereo unspecified), inactive: 2.77%; for `COc1ccccc1CNC(=O)c1ccc2c(c1)nc(C)n2-c1ccccc1OC`, inactive: -14.9%. For `Cc1nn2c(-c3ccco3)ccnc2c1-c1ccc(F)cc1`, the “activation” value was inactive: 4.69%. Take `CCCCNc1nc2c(S(=O)(=O)c3ccc(C)c(C)c3)nnn2c2ccsc12`: the “activation” value was inactive: -4.81%.

In the case of `Cc1c(-c2nc(-c3ccccc3)no2)nnn1-c1cccc(C(F)(F)F)c1`, the “activation” value was inactive: -14.7%. With `Cc1ccc(CSc2nc3c([nH]c4ccccc43)c(=O)n2C)cc1`, the “activation” value is inactive: -8.46%.

On to `COC(=O)c1ccccc1NC(=O)c1ccc2c(c1)CCN2S(C)(=O)=O`, for which the “activation” value is inactive: -9.52%. In the case of `COc1cc(Nc2ncc3c(n2)CCN(Cc2cc(Br)cs2)C3)cc(OC)c1`, the “activation” value is inactive: -14.6%.

Regarding `CCOc1ccccc1OCCN[C@H](C)Cc1ccc(OC)c(S(N)(=O)=O)c1`, the “activation” value is inactive: -17.3%. As for `CCOc1ccc(NC(=O)Cn2c(C)cc3ccccc3c2=O)cc1`, the “activation” value is inactive: -9.02%. For `Cc1ccc(NC(=O)Cn2c(=O)n(CCCCC(=O)NCc3ccccc3Cl)c(=O)c3ccccc32)cc1C`, the “activation” value is inactive: -3.14%.

Turning to `COc1ccccc1NC(=O)CN1CCCN(S(=O)(=O)c2ccc(Br)cc2)CC1`, the “activation” value is inactive: -18.9%.

As to `Cc1nc2ccccn2c(=O)c1NC(=O)c1ccc(C(F)(F)F)cc1`, the “activation” value was inactive: -11.6%. Turning to `COc1ccc(NC(=O)c2cccn2-c2nnc(N3CCCCC3)s2)cc1Cl`, the “activation” value was inactive: -22.3%.

Consider `Cc1ccc(C)c(NC(=O)CSc2c3c(nc4ccc(Cl)cc24)CCCC3)c1`, for which the “activation” value was inactive: -7.91%. For the compound `COc1cn(CC(=O)Nc2cccc(C)c2C)c(CN2CCCCC2)cc1=O`, the “activation” value is inactive: -7.3%. `CC1=C(C(=O)Nc2cccnc2)C(c2ccc(Cl)cc2)n2nc(-c3ccccc3)nc2N1` (stereo unspecified): the “activation” value is inactive: -8.31%. As to `COc1ccc(OC)c(S(=O)(=O)NCc2cccn2Cc2cccc(C)c2)c1`, the “activation” value was inactive: -11.2%.

Turning to `CCn1cc(C(=O)O)c(=O)c2cnc(N3CCCC3)nc21`, the activation was inactive: -3.04% [at 11.5 µM]. Consider `COc1ccc(C(=O)Nc2cccc(OCc3cc(=O)n4c5c(sc4n3)CCCC5)c2)cc1`, for which the “activation” value is inactive: -6.96%. Turning to `Cn1c(=O)c2c(nc3n(-c4ccc(O)cc4)c(-c4ccc(Br)cc4)cn23)n(C)c1=O`, the “activation” value is inactive: -20.9%. With `COc1ccc(/C=C(\C#N)c2nc(-c3cc4c(ccc5ccccc54)oc3=O)cs2)cc1O`, the “activation” value was inactive: -12.3%. Take `Cc1ccc(C2=Nc3ccccc3N(CC(=O)NCc3ccc(F)cc3)C(=O)C2)cc1C`: the “activation” value is inactive: -11.9%. For the compound `O=C(O)c1ccc(-n2c(/C=C\c3ccc(O)cc3)nc3ccccc3c2=O)cc1`, the “activation” value is inactive: 3.68%. Take `CCOC(=O)c1ccccc1NC(=O)c1sc2ncn(Cc3cccc(F)c3)c(=O)c2c1C`: the “activation” value is inactive: -7.92%.

`CCN1CCN(c2cc3c(cc2F)c(=O)c(S(=O)(=O)c2ccccc2)cn3C)CC1`: the “activation” value is inactive: -1.56%.

For `CC(C)NC(=O)CCCN1C(=O)CCn2nc(-c3cccn3C)cc21`, the “activation” value is inactive: -8.32%. For `COc1ccccc1NC(=O)CSc1nc2ccccc2c2nc(-c3ccccc3)nn12`, the “activation” value was inactive: -9.47%. Regarding `COc1cccc(C(=O)c2cn(CC(=O)NCc3ccccc3)c3nc(C)ccc3c2=O)c1`, the “activation” value is inactive: -24.6%. Next, `COc1ccc(OCc2nc3c4c(-c5ccccc5)c(-c5ccccc5)oc4ncn3n2)cc1`: inactive: -4.35%; `COc1ccc(CNC(=O)CSc2nc3ccccc3nc2Cc2ccccc2OC)cc1`: inactive: 9.17%. Turning to `COC(=O)c1sc(NC(=O)/C=C/c2ccc(OC)c(OC)c2)c(C(=O)OC)c1C`, the “activation” value is inactive: -14.7%. As for `O=S(=O)(O)CCS`, the “activation” value is inactive: -15%. On to `CC1=C(C(=O)OCc2ccccc2)C(c2cccc(Cl)c2Cl)CC(=O)N1` (stereo unspecified), for which the “activation” value is inactive: -8.58%. `Cc1nn(C)c2c1c(C(F)(F)F)cc(=O)n2C(C)C(=O)NCc1ccc(Cl)cc1` (stereo unspecified): the “activation” value was inactive: -22.1%. Take `O=C(Nc1ccc(Br)cc1F)N1CCC(CN2CCCC2)CC1`: the “activation” value is inactive: -8.82%. As to `CCOC(=O)c1ccc(NS(=O)(=O)c2cc(-c3onc(C)c3C)ccc2C)cc1`, the “activation” value was inactive: 9.96%. Next, `Cc1cccc(CNC(=O)CSCc2cnn(-c3ccccc3)c2-n2cccc2)c1`: inactive: -15%. Turning to `Cc1[nH]c2ccccc2c1C1N2CC3(C)CN1CC(C)(C2)C3=O` (stereo unspecified), the “activation” value was inactive: 4.11%. `CC1=C(c2ccc(C)cc2)S(=O)(=O)NC1=NCc1cccc(F)c1`: the “activation” value was inactive: -7.87%. With `CCN1C(=O)c2ccccc2S(=O)c2ccc(C(=O)N3CCN(c4cccc(C)c4)C(C)C3)cc21` (stereo unspecified), the “activation” value is inactive: -13.2%. For the compound `COc1cc(OC)c(C2Nc3c(C)cccc3-c3cc(C)nn32)cc1OC` (stereo unspecified), the “activation” value is inactive: -0.8%. For the compound `CCc1ccccc1NC(=O)Cn1c2ncccc2c(=O)n1-c1ccccc1`, the “activation” value is inactive: -4.91%.
